# In patent US10576059B2, “Substituted phenylpyrrolecarboxamides with therapeutic activity in HIV” (New York Blood Center, Inc., priority 2014, dated 2020):
# Target: HIV (pNL4-3) heterodimeric (p66/p51) Reverse Transcriptase (Human immunodeficiency virus type 1 group M subtype B, UniProt P12497)
# Experiment: HIV-1 Reverse Transcriptase (RT) assay
# Experimental: Purified recombinant HIV (pNL4-3) heterodimeric (p66/p51) Reverse Transcriptase (RT) was purchased from a commercially available source. The assay was performed in 96-well filter plate, where RT activity was determined by the incorporation of radiolabeled deoxyribonucleotides into the newly synthesized DNA strand. […] Briefly, the reaction was carried out in a volume of 50 μl containing 50 mM Tris HCl, pH 7.8, 50 mM KCl, 5 mM MgCl2, 1 mM DTT, 50 μM each of dATP, dCTP, dGTP, 50 nM dTTP, 1 μCi of [^3H] dTTP (70-90 Ci/mM) and 5 nM template/primer. The reaction was initiated by the addition of 10 nM RT.
# Compounds were diluted in 100% DMSO to 40 mM. Each compound was diluted in the appropriate reaction buffer for the biochemical assay per protocol. Serially diluted test compounds were added to the reaction followed by the addition of RT. The reaction mixture was incubated at 37° C. for 1 h, and then quenched by the addition of ice-cold trichloroacetic acid (TCA) to the final concentration of 10%. The plate was incubated at 4° C. for 1 h to precipitate the synthesized DNA, then rinsed 3-times with 10% TCA and 1 time with 70% ethanol. After addition of 25 μl scintillation fluid to completely dried wells, radioactivity was counted by MicroBeta scintillation counter (PerkinElmer). The reduction of radioactivity represents the potency of compound inhibition. (See Table 3)
smiles,measurement,value
"Cc1nc(C(CN)NC(=O)c2ccc(-c3ccc(Cl)cc3)[nH]2)sc1CO (single isomer, unassigned) [Compound 39]",IC50,2560 nM
